Experimental data as given in PubChem BioAssay AID488969 (Vanderbilt High Throughput Screening Facility, 2010).
In all, about 110,000 compounds were measured (“z-score”: median about -0.1, highest 2% from about 2 on). This is one part of the list. The source made the active and inactive calls.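 How the source made its calls: active means z-score in the third read window above 3 or below -3; inactive means the rest.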

What follows are compounds tested against Metabotropic glutamate receptor 8 (Rattus norvegicus) (UniProt P70579) (assay: rat mGluR8 modulators via GIRK flux, primary screen, cell-based, thallium flux, HTS (AID 488969)). Conditions: HEK293 rat mGluR8, GIRK (G protein-gated inwardly rectifying potassium channel) thallium flux, FluoZin2; at 10 µM; stronger effect = higher value; submaximal glutamate (EC20) added with thallium.
Chain of UniProt P70579 (P70579 whole entry, looked up): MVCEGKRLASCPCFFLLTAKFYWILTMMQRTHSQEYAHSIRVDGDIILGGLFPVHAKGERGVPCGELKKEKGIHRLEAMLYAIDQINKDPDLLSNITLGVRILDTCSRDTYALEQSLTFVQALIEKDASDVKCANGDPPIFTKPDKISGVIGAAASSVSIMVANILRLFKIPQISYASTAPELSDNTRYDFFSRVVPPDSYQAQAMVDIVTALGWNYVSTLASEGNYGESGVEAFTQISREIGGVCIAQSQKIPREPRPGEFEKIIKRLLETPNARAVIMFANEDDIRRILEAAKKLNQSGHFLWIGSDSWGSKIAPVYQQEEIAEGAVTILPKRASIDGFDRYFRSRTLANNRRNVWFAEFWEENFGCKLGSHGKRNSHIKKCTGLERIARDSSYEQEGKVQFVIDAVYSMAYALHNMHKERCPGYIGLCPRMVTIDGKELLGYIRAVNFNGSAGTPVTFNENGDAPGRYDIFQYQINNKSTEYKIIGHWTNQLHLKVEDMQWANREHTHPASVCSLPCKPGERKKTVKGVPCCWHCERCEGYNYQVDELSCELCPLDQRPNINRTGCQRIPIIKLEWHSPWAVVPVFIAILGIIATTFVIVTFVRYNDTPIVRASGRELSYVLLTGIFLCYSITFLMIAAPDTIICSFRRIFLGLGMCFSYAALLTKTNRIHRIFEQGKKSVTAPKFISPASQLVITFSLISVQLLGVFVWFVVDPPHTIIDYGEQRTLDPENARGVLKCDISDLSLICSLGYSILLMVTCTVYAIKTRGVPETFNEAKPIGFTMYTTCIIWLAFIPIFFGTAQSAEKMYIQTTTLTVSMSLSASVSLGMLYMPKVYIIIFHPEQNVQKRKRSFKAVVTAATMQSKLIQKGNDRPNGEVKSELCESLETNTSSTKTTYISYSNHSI

SMILES	z-score
O=C(CSc1ncnc2c1cnn2Cc1ccccc1)Nc1ccc2c(c1)OCCO2	0.549
O=C(NCc1ccccc1C(F)(F)F)C12CN(Cc3ccccc3)CC1C(c1ccc([N+](=O)[O-])cc1)=NO2 (configuration not stated)	-0.395
CC(Oc1ccc(Cl)cc1Cl)c1nc(-c2ccc(NC(=O)c3ccccn3)cc2)no1 (configuration not stated)	-0.152
Cc1c(Br)c([N+](=O)[O-])nn1CC(=O)Nc1sc2c(c1C(=O)OC(C)C)CCCC2	-0.096
Cc1csc2ncc(C(=O)N3CCc4ccccc43)c(=O)n12	-0.249
Cc1[nH]c2ccccc2c1C(=O)CSC(=S)N1CCCCC1	-0.247
CCSc1ncc(C#N)c(N)n1	0.108
COc1cc(Nc2nc(SCC#N)nc3ccccc23)cc(OC)c1OC	2.31
CCN1CCc2c(C#N)c(NCc3ccccc3)nc(NCCO)c2C1	-0.101
COc1ccc2nc(NC(=O)CSc3nnc(C)s3)sc2c1	-0.0478
COc1cccc(NC(=O)c2cc(-c3cccnc3)nc3c(Cl)cccc23)c1	-0.244
C=CCNC(=O)C1CCN(S(=O)(=O)c2ccc(Br)cc2)CC1	0.689
Cc1nn(C(=O)c2nn(C)cc2Cl)c(C)c1Br	0.0765
CCOc1ccccc1OCCCCOc1ccccc1F	0.0236
CCCOC(=O)c1ccc(NC(=O)c2ccoc2C)cc1	2.24
CC(=NCCCn1ccnc1)C1=C(O)c2ccccc2C1=O	-0.322
Cc1cc(NC(=O)CSc2nc(-c3ccc(Cl)cc3)cs2)no1	0.219
Cc1cnc(NC(=O)CSc2c(Cl)cccc2Cl)s1	-0.212
O=C(Nc1cnccn1)c1cccnc1	0.255
Cc1cccc(NC(=O)CN(C)S(=O)(=O)c2ccc(Br)cc2)n1	0.0747
COc1ccc2oc(=O)c(C(=O)N3CCN(c4ccccc4F)CC3)cc2c1	-0.0962
CC(=O)C1C(c2ccc(C)cc2)c2c(n[nH]c2C)CC1(C)O (configuration not stated)	-0.966

SMILES	z-score
COc1ccc(/C=C2\SC(=O)N=C2N)cc1	-0.385
O=C1/C(=C/c2cccnc2)Oc2cc(OS(=O)(=O)c3ccc(F)cc3)ccc21	-0.393
N=c1c(C(=O)NC2CCCC2)cc2c(=O)n3ccccc3nc2n1C1CCCC1	-0.736
O=C(CSc1nnc(CNC(=O)c2cccs2)o1)Nc1cccc(C(F)(F)F)c1	-0.458
CCC(Oc1ccc2ccccc2c1)C(=O)O (configuration not stated)	-0.0519
CSC1=N/C(=C\C=C\c2cccs2)C(=O)S1	-0.171
O=[N+]([O-])c1nn(-c2ccc3c(c2)OCCO3)n(O)c1=NCc1ccc(F)cc1	-0.3
O=C1CSC(c2ccc(Cl)cc2)N1 (configuration not stated)	0.239
O=C(c1ccco1)N1CCN(C(=O)C2CC(c3ccc(Cl)cc3)=NO2)CC1 (configuration not stated)	-0.332
COc1ccc(/C=C/C(=O)NCc2cn(C)nc2C)cc1COc1ccc(Cl)cc1Br	-0.0945
CCCCC(CC)CNC(=O)c1ccc2c(c1)OCO2 (configuration not stated)	-0.00547
Cc1ccc(/C=C/C2=Cc3c(sc(NC(=O)CSc4n[nH]c(N)n4)c3C#N)C(C)(C)C2)o1	-0.156
CCCN1CCN(C(=O)c2ccc(Sc3ccc(C)cc3)c(NC(C)=O)c2)CC1	0.0178
Cc1ccc(S(=O)(=O)N2CCN(CC(=O)N/N=C\C(Cl)=C\c3ccccc3)CC2)cc1	0.00578
COc1c(Cl)ccc(Cl)c1C(=O)NC(=O)N1CCOCC1	-0.808
CN1CCN(C(=O)c2ccc(CN3CCOCC3)cc2)CC1	0.0375
O=C(CCn1nc(-c2ccccc2)ccc1=O)N1CCOCC1	0.676
COc1ccc(COC(=O)N/N=C(\C)CC(=O)Nc2c(C)cc(C)cc2C)cc1	-0.78
OC1CCN(c2c3c(nc4cc(-c5ccc(F)cc5)nn24)CCC3)CC1	-0.132
CCc1ccc(S(=O)(=O)NCCc2csc(-c3ccccc3)n2)s1	-0.301
O=C(OC(C(=O)NC1CCCCC1)c1ccccn1)c1cccs1 (configuration not stated)	0.139
CCOc1ccc(CCNC(=O)CCc2nc(-c3ccc(C)cc3)no2)cc1OCC	0.33

SMILES	z-score
CCN1CCN(Cc2ccc(NC(=O)CC3Oc4ccc(C)cc4NC3=O)cc2)CC1 (configuration not stated)	0.769
COc1ccc(/C=C/C(=O)O)cc1COc1ccccc1C	0.295
COc1ccc(NC(=O)CN2C(=O)c3cccc4cccc2c34)cc1OC	0.287
CCC1(C)N=C(c2ccc3c(c2)OCO3)CC(c2ccccc2O)N1 (configuration not stated)	0.0814
CCOC(=O)/C(C#N)=C/c1ccc(OCC(=O)Nc2ccc(OC)cc2)c(OC)c1	0.00326
COc1ccc2c(CC(=O)N(C)CC3COc4ccccc4O3)coc2c1 (configuration not stated)	-0.3
COc1cccc(C2N(c3ccc(Cl)cc3)C(=O)C3CCCN32)c1 (configuration not stated)	0.714
Nc1cccc2c1C(=O)N(C(=O)c1ccc(S(=O)(=O)N3CCCCCC3)cc1)C2=O	-0.167
CCCn1c(SCC(=O)N2CCCCC2)nnc1-c1ccco1	-0.171
COc1cc2c(cc1NC(=O)CN1CCN(S(=O)(=O)c3ccc(C)cc3)CC1)oc1ccccc12	-0.503
O=C(NC12CC3CC(CC(C3)C1)C2)C1CCCN1C(=O)NC1CCCCC1 (configuration not stated)	0.22
COC(=O)Sc1nc(N2CCOCC2)c2c(c1C#N)CC(C)(C)OC2	-2.52
Cc1cc(C)cc(N2C(=O)CC(Sc3nnnn3-c3ccccc3)C2=O)c1 (configuration not stated)	-0.0438
C=CCN=C1SCC(=O)N1S(=O)(=O)c1ccccc1	-0.016
COc1ccc(OCc2nnc(SCC(=O)O)n2N)cc1	0.134
N#CC1=C(N)Oc2n[nH]c(-c3ccncc3)c2C1c1ccsc1 (configuration not stated)	-0.452
CC(C)(C#CCN1CCCC1)OCCC#N	-0.108
COCCn1c(SCC(=O)Nc2ccc(Cl)c(S(=O)(=O)N(C)C)c2)nc2ccccc21	-1.27
COc1ccc(CN2CCSCC2)cc1C	-0.691
COc1cc(NC(=O)CN2CCN(c3ccccc3)CC2)c(C)cc1[N+](=O)[O-]	-0.248
Cc1ccc(C2=[N+]([O-])C3(CCCCC/C3=N\NC(N)=S)N(O)C2(C)C)o1 (configuration not stated)	-0.236
CC1CCCCN1CCNC(=O)c1cnn2ccccc12 (configuration not stated)	-0.129

SMILES	z-score
CC(C)CCn1nc(C(=O)Nc2nc3c(s2)CCCC3)c2ccccc2c1=O	0.157
Cc1ccc(N(CC(=O)Nc2cccc(N(C)S(C)(=O)=O)c2)S(C)(=O)=O)cc1	0.0836
C[C@H](NC(=O)OC(C)(C)C)c1nnc(SCC(=O)Nc2ccc(Br)cc2)o1	0.205
O=[N+]([O-])c1cccc(/C=C/c2nc(C=Nc3ccccc3)c(O)o2)c1	-0.161
CCc1ccc(C(C(=O)NCc2ccc(OC)cc2)N(CCOC)C(=O)Cc2cccs2)cc1 (configuration not stated)	-0.37
O=C(O)CCC(=O)N1N=C(c2c(-c3ccccc3)c3cc(Cl)ccc3[nH]c2=O)CC1c1cccs1 (configuration not stated)	-0.38
CCc1c(C)nc(SCC(=O)N2CCc3ccccc32)[nH]c1=O	active: 4.54
CC1(C)CC(=O)c2c(O)cc(OCc3ccc([N+](=O)[O-])cc3)cc2O1	-0.143
C=C(C)CSc1nnc2n(N)c(=O)c3ccccc3n12	-0.341
S=C(NCc1ccncc1)Nc1cccc(Cl)c1	-0.135
Cc1ccc(NC(=O)c2cccc(OCc3c(C)noc3C)c2)cc1S(=O)(=O)Nc1ccccc1Cl	-1.89
O=C(CC(c1ccccc1)c1ccccc1)NCC1CCCO1 (configuration not stated)	-0.78
O=C(CN1CCCCC1)Nc1cccc(Oc2ccccc2)c1	1.13
CC1(C)CC(=O)C2=C(C1)N(Cc1ccco1)C(=O)C2(NC(=O)C1CCCCC1)C(F)(F)F (configuration not stated)	0.273
COc1ccc(C2=NN(C(=O)CSc3nnc(-c4ccccc4F)o3)C(c3ccco3)C2)cc1 (configuration not stated)	0.428
COc1ccc(N(CC(=O)N2CCCC(C)C2)S(=O)(=O)c2c(C)nn(C)c2C)cc1 (configuration not stated)	-0.0582
CCOc1ccccc1C1C(C(=O)Nc2ccc(OC)cc2)=C(C)Nc2nc(CCCO)nn21 (configuration not stated)	1.3
O=C(Nc1nccs1)c1ccc(COc2ccccc2Br)o1	0.0903
Fc1ccc(COc2ccc(Cl)cc2/C=N/Nc2nc(N3CCCC3)nc(N3CCCC3)n2)cc1	-0.209
Cc1ccc(Nc2ncnc3sc(C)c(C)c23)cc1	0.163
O=C(NCc1ccco1)/C(=C\c1cccnc1)NC(=O)c1ccccc1F	-0.205
CC1CCCC(NS(=O)(=O)c2ccc3c(c2)OCCO3)C1C (configuration not stated)	-1.41

SMILES	z-score
C=CCc1c(C)nc(C)nc1N/N=C/c1ccc([N+](=O)[O-])cc1	-0.491
Cc1ccc(C)c(Cn2c(=O)n(CCCC(=O)NCc3ccco3)c(=O)c3sccc32)c1	-0.162
Cc1c(NC(=O)CN2C(=O)c3cccc4cccc2c34)c(=O)n(-c2ccccc2)n1C	-0.144
Cc1cc2ncn(C(=O)N3CCCCCC3)c2cc1C	-0.0727
Cn1c(Cl)nc2c1c(=O)n(Cc1cccc(Br)c1)c(=O)n2C	-0.0966
Cc1nc2ccc(C(=O)N3CCN(c4ccccc4)CC3)cc2s1	-0.389
COc1ccccc1NS(=O)(=O)c1ccc(NC(=O)c2nc3nc(C)cc(C(F)F)n3n2)cc1	-0.251
COc1cccc(-c2cc(C(=O)NCc3ccc(Cl)cc3)no2)c1	0.359
CCCc1nc2sc3c(c2c(=O)n1NC(=O)CCC(=O)O)CCCC3	0.696
O=C(NCCc1ccccc1)c1cc2ncc(Br)cn2n1	-0.293
COc1ccc(Nc2nc(C)cc(=O)[nH]2)c(OC)c1	0.181
CCc1ccccc1NC(=S)N1CCC(C(=O)c2ccc(F)cc2)CC1	0.202
COc1ccc(C(=O)NC(=S)N(Cc2ccccc2)Cc2ccccc2)cc1	active: 16.8
Cc1ccc(NC(=O)CCC(=O)OCC(=O)c2ccc(Oc3ccc([N+](=O)[O-])cc3)cc2)c(C)c1	0.000298
O=C(Nc1nc2ccc(SC(F)F)cc2s1)c1ccc2c(c1)S(=O)(=O)c1ccccc1C2=O	-0.0834
COc1ccc(-c2nnc3n2N=C(C)CS3)cc1OC	-0.0383
COc1cc2c3c(c1)/C(=C1/SC(NC(C)=O)=NC1=O)C(=O)N3C(C)(C)C=C2C	-0.174
O=C(C1CCN(C2CC(=O)N(c3ccc(Cl)cc3)C2=O)CC1)N1CCOCC1 (configuration not stated)	0.478
COC(=O)c1cc(OC)c(OC)cc1NC(=O)c1cnccn1	-0.208
